The whole screen tested about 310,000 compounds, of which about 14,000 (4.5%) showed an effect of 50% or more. Effects have a minus sign here. The list shows a part of the results.
Biological target: human ether-à-go-go-related gene (hERG) potassium channel (human, UniProt Q12809)
Assay: primary screen, population patch clamp on CHO cells stably expressing hERG
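Further: peak tail current of the secondary pulse compared with the same well before compound.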

Sequence of human ether-à-go-go-related gene (hERG) potassium channel (Q12809 whole entry, looked up): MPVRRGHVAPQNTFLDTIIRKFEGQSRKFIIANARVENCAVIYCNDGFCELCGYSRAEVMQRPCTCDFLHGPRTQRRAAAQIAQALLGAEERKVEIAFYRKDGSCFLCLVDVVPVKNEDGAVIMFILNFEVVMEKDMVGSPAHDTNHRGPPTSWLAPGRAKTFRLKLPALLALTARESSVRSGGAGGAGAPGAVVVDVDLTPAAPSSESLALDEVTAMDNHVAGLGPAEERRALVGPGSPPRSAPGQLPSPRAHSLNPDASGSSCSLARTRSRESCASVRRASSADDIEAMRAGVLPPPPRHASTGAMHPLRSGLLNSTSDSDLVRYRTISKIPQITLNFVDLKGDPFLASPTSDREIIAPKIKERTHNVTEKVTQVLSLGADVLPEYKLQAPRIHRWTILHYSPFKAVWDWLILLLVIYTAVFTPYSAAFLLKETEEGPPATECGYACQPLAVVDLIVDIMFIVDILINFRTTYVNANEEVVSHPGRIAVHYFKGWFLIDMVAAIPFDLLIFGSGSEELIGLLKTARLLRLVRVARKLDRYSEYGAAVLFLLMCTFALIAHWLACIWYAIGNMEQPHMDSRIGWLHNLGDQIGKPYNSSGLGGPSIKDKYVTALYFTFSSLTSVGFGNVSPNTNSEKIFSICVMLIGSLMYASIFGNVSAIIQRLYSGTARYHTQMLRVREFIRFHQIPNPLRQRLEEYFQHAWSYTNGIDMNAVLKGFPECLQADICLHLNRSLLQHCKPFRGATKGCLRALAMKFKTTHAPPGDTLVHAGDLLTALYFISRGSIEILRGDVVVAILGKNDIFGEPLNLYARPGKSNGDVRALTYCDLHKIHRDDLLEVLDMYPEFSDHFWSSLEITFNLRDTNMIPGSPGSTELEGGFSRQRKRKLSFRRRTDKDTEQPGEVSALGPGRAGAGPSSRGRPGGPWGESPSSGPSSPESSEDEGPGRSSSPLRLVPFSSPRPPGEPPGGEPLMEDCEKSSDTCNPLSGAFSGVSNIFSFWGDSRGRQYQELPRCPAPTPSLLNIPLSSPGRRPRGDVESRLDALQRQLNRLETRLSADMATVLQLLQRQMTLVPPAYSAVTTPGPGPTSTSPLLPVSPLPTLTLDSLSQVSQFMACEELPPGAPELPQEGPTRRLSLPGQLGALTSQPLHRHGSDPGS

Compound	hERG current change (%, negative = inhibition) at 10uM [%]
Clc1ccccc1C1Nc2cccc3cccc(c23)N1	1.64
C[C@H](NC(=O)c1nc[nH]c1C(=O)NCC(=O)OC(C)(C)C)C(=O)OCc1ccccc1	-24.1
COc1cccc(CNC(=O)N2CCN(c3ccccc3Cl)CC2)c1	-28
C=CCNC(=O)c1snnc1-c1ccccc1	-0.284
CCOC(=O)CSC1=C(C#N)C(c2ccc(OC)cc2)C2=C(CC(C)(C)CC2=O)N1 (stereo not shown)	-25.8
COc1cccc(CNC(=O)CSc2nnc3c(n2)[nH]c2ccc(C)cc23)c1	-6.09
Cc1ccccc1Nc1nc(-c2sc(NC(=O)c3ccco3)nc2C)cs1	23.6
O=C(c1ccco1)N1c2ccccc2Sc2ccccc21	-0.792
Cc1ccc(C(Sc2ccccc2)C(Cn2cncn2)C(=O)c2ccccc2)cc1 (stereo not shown)	12.8
COc1ccc(C(=O)NCC(=O)OCC(=O)N2CCCc3ccccc32)cc1	19.9
COc1ccc(-n2cnnc2SCC(=O)Nc2ccc(N3CCOCC3)cc2)cc1	-10.1
C/C=C/c1ccc(OCCCN2C(=O)NC(C)(C)C2=O)c(OC)c1	9.48
N#C/C(=C\C=C\c1ccccc1[N+](=O)[O-])C(=O)NCc1ccccc1	-26.1
COCCn1c(SCC(=O)Nc2ccc3c(c2)OCCO3)nnc1-c1c[nH]c2ccccc12	5.61
CCOC(=O)[C@H](CCc1ccccc1)N[C@@H](C)C(=O)N1Cc2ccccc2C[C@H]1C(=O)O.Cl	7.97
NC(=O)c1cc(-c2ccccc2)sc1NC(=O)Cc1ccc(S(=O)(=O)N2CCOCC2)s1	12.9
O=C(Nc1ccc(-c2nc3ccccc3o2)cc1)c1cccnc1	-3.53
CCN1C[C@]2(CO)CC[C@H](OC)[C@@]34C5C[C@H]6[C@H](OC)C5[C@](O)(C[C@H]6OC)[C@@](O)(C(OC)C23)[C@@H]14 (stereo partly shown)	18
COc1ccc(-n2nc(C(=O)NCC(=O)N3CCCCCC3)c3ccccc3c2=O)c(OC)c1	4.26
O=C(OCCN1C(=O)c2ccccc2C1=O)c1cccs1	-6.85
Cc1ccc(-c2cc(NC(=O)CSc3n[nH]c(N)n3)n(-c3ccccc3)n2)cc1	-10.3
CCN(CC)CCCn1c2c(c(SCC(=O)Nc3ccccc3Cl)nc1=O)CCC2	-55.4

Compound	hERG current change (%, negative = inhibition) at 10uM [%]
CS(=O)(=O)N1CCN(C(=O)c2ccncc2)CC1	4.75
CCOc1nc(Oc2cccc(C(=O)O)c2)nc(Oc2cccc(C(=O)O)c2)n1	11.1
CC(=O)Nc1cc2nn(-c3ccccc3)nc2cc1Cl	10.6
Clc1ccc(C2CC(c3ccco3)n3ncnc3N2)cc1Cl (stereo not shown)	-21.5
CCc1c(C)nc2ncnn2c1N1CCC(C(=O)NCc2ccc3c(c2)OCO3)CC1	-68.7
O=C1CC(N2CCN(c3ccc(F)cc3)CC2)C(=O)N1c1ccccc1 (stereo not shown)	-9.91
Cc1cc(=O)[nH]c(SCC(=O)Nc2ccccc2C)n1	30.9
COC(=O)c1ccccc1NC(=O)CSc1n[nH]c(C)n1	-0.684
O=C(O)CC1(CC(=O)NCc2cccc(Cl)c2)CCCCC1	13.1
Cc1cn(C2OC(COC(=O)c3ccccc3)C(OC(=O)c3ccccc3)C2OC(=O)c2ccccc2)c(=O)[nH]c1=O (stereo not shown)	7.67
COc1ccc(OC)c(-c2cc(C(=O)Nc3sc4c(c3C#N)CCC(C)C4)c3ccccc3n2)c1 (stereo not shown)	0.308
Cc1cc(NCC2CCCCC2)nc2ccccc12	-42.7
N#Cc1c(Cl)nsc1NN	27.6
CCN(CC)S(=O)(=O)c1ccc2oc(SCc3ccc(F)cc3)nc2c1	-12.5
CCOc1ccc(NC(=O)CN(c2cccc(C(F)(F)F)c2)S(C)(=O)=O)cc1	-12.8
CC(C)Cc1nnc(NC(=O)CCc2c[nH]c3ccccc23)s1	3.86
CCOC(=O)C1=C(N)N2C(=O)C(C)SC2=C(C(=O)OCC)C1c1ccc(O)cc1 (stereo not shown)	-4.21
Cc1ccc(-c2nc(-c3cccnc3)sc2CC(=O)Nc2ccc(C)c(Cl)c2)cc1	14.2
O=C(Nc1ccc(NC(=O)c2cccs2)cc1)c1ccc2ccccc2c1	25.3
Cc1nc2scc(-c3ccc(Cl)cc3)c2c(=O)o1	2.99
Cc1ccc(S(=O)(=O)N2CCn3cccc3C2C)cc1 (stereo not shown)	-22.7
CCCCn1c(N)c(N(CCOC)C(=O)c2sc3ccccc3c2Cl)c(=O)[nH]c1=O	-11.1

Compound	hERG current change (%, negative = inhibition) at 10uM [%]
CSC1=N/C(=C\c2ccc(Br)o2)C(=O)S1	4.63
Cc1cc(C)cc(NC(=O)c2ccc(S(=O)(=O)C(F)F)cc2)c1	-29.7
CC(OC(=O)c1ccccc1)C(=O)NCCC1=CCCCC1 (stereo not shown)	-2.42
Cc1cc(=O)oc2cc(OCC(=O)NCc3ccccn3)ccc12	9.34
CC12CCC(=O)N1C(C(=O)Nc1nnc(SCc3ccccc3F)s1)CS2 (stereo not shown)	-26.2
O=C1CCc2cc(S(=O)(=O)NCCC(=O)NC3CCCCC3)ccc2N1	5.97
CCOC(=O)/C(=C\c1ccc(OC)c(OC)c1)C(=O)c1cccnc1	5.94
CNC(=S)N1CCN(CCNC2=CC(=O)CC(C)(C)C2)CC1	21.3
O=c1[nH]c2ccc(NS(=O)(=O)c3ccc(F)c(Cl)c3)cc2[nH]1	9.27
CCCOc1ccc(OC(=O)Cc2ccc(OC)c(S(=O)(=O)N3CCOCC3)c2)cc1	-21.7
CC(C)(C)NS(=O)(=O)c1ccc(NC(=O)NC2CCCCC2)cc1	-13.9
Cc1ccc2ncnc(Oc3ncccc3[N+](=O)[O-])c2c1	-7.8
COc1cc(NS(=O)(=O)c2ccc(NS(=O)(=O)c3ccccc3)cc2)nc(OC)n1	17.7
CCOC(=O)N1CCc2c(sc3ncn(Cc4ccc(F)cc4)c(=O)c23)C1	-45
CC(=O)Oc1ccc(C(=O)Nc2ccccc2NC(=O)c2ccc(OC(C)=O)cc2)cc1	-9.19
O=C(COC(=O)COc1ccc(Br)cc1)NCc1ccccc1	6.35
COc1cc(OC)c(NS(=O)(=O)c2c(C(=O)N3CCCCC3)c(C)n(C)c2C)cc1Cl	5.91
Cc1cc(NN)nc(NS(=O)(=O)c2ccccc2Cl)n1	12.7
Cc1cc2ccccc2n2c(SCC(=O)NCc3cccs3)nnc12	-11.5
CCOC(=O)N1CCN(C(=O)c2ccc(Oc3ccc([N+](=O)[O-])cc3)cc2)CC1	-68.3
COc1ccc(CC(=O)NCCCCc2ccccc2)cc1OC	4.21
CCc1cc(=O)oc2cc(OCC(=O)O)c(Cl)cc12	3.19

Compound	hERG current change (%, negative = inhibition) at 10uM [%]
CN(C)c1ccc(CNS(=O)(=O)c2ccc3c(c2)C(C)(C)C(=O)N3C)cc1	5.98
Cc1ccccc1C(=O)c1cccn1CC(=O)NCCN1CCN(c2cccc(C)c2C)CC1	-69.5
O=C(NC12CC3CC(CC(C3)C1)C2)c1ccc(-c2ccc(Cl)cc2)o1	-11.8
C/C(=N\NC(=O)c1cccc(S(=O)(=O)N2CCOCC2)c1)c1ccc(OC(F)F)cc1	-18.8
COc1ccccc1N(C)S(=O)(=O)c1ccc(C(=O)OCC(=O)N(C)c2ccccc2)cc1	12.6
CC1=C(C(=O)NCCN2CCN(C)CC2)C2(CCC(C)CC2)OC1=O (stereo not shown)	6.17
Cc1cc(Cl)ccc1NC(=O)CN(C)C1=NS(=O)(=O)c2ccccc21	4.17
COc1ccc(C(=O)NNC(=O)c2ccc(S(=O)(=O)N3CCOCC3)cc2)cc1	20
O=C(NCCNc1ccc([N+](=O)[O-])cc1)c1cccc2c(Br)cccc12	-23
NC(=O)c1sc2nc(-c3cccs3)ccc2c1N	8.15
CC1(C)CC(=O)C=C(NNC(=O)c2ccc(N)cc2)C1	-5.53
Cc1nc(S(=O)(=O)N2CCN(C3c4ccccc4-c4ccccc43)CC2)cn1C	13.9
Cc1cccc(CCN(CC(=O)NCc2ccc(F)cc2)C(=O)c2csnn2)c1	-29
CCCCCCCCn1c(=O)c(C(=O)OC)c(N)c2ccccc21	3.02
Cc1cnc(C(=O)OCC(=O)Nc2ccccc2-c2ccccc2)cn1	8.66
CCCOc1ccc(N2C(=O)CC(N(CCc3ccc(OC)c(OC)c3)C(=S)Nc3ccccc3)C2=O)cc1 (stereo not shown)	14.5
COC(=O)c1ccc(C(=O)OC)c(NC(=O)COc2ccccc2OC)c1	7.26
Cc1sc2nc(CSCC(=O)N(C)c3ccccc3)[nH]c(=O)c2c1C	-3.48
CN(C(=O)c1ccc(OC2CCN(Cc3ccccn3)CC2)cc1)C1CCCCC1	-9.82

Reference: article PMC4336329 (PLoS ONE, 2015)
